# Data taken from the supplement of paper PMC3334620.
# The full ranking holds about 33,000 sequences; the median of “E-score (-0.5 to 0.5)” is about -0.016, and the highest 2% start at about 0.32. This is one part of the list.
# Target: T1, Stp1 (UniProt B3LFK1)
# T1 sequence: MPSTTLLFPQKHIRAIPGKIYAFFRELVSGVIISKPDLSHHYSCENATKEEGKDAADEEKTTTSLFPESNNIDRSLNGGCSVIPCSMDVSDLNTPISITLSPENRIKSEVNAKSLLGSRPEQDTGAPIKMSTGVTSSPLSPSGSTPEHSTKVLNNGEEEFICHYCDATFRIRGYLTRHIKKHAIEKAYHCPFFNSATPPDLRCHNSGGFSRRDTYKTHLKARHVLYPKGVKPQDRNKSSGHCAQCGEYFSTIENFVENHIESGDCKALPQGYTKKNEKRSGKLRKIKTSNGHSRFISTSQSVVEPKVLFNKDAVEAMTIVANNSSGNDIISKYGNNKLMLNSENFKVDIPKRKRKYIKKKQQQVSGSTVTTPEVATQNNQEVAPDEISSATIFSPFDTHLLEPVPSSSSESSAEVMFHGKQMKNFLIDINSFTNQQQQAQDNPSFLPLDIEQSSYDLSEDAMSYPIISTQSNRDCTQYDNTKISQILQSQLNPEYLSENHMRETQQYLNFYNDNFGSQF
# Assay: PBM E-score (8-mer binding enrichment) (E-score (-0.5 to 0.5)); higher = stronger / more preferred TF binding; most listed sequences are background and not binding sites
# Conditions: protein concentration: 200 nM; construct: GST-full length
# Description: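 Universal 'all 10-mer' protein binding microarrays (Agilent AMADID 015681) probed with GST-tagged S. cerevisiae TFs (full-length or DBD) made by in vitro transcription/translation (PURExpress), about 100-200 nM. Bound TF was detected with fluorescent anti-GST. Each ungapped 8-mer (which stands for itself and its reverse complement) is scored by the PBM enrichment score (E-score), a modified Wilcoxon-Mann-Whitney statistic from -0.5 to +0.5, computed with the Universal PBM Analysis Suite. Scale: above 0.35 generally sequence-specific binding.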
row,Sequence,PBM E-score
1,CGCGGATA,0.297
2,ACTGAAAA,0.0532
3,GGTAGTCA,-0.388
4,ATCACCAG,-0.00524
5,ACGTTAGG,-0.041
6,ACGAACGC,0.159
7,AGCTACGC,0.117
8,TAAAGAAA,0.173
9,CTAGCCAC,-0.146
10,CCATGAAA,0.124
11,GCGTTGTA,0.133
12,CAGAGGAC,-0.15
13,ACTAGTAT,0.0239
14,ATAGAACC,-0.0631
15,ACAGACCA,-0.0595
16,CCGGAGAC,-0.131
17,GTATTCGA,-0.0928
18,GTGGGCGA,-0.00284
19,ACGGATCT,0.157
20,ACGACGCA,0.0151
21,AATCCCCA,-0.248
22,CACACCAG,0.00669
23,AGGGATGG,0.0506
24,GGGAAGAC,-0.17
25,TAGCTAAA,0.0136

row,Sequence,PBM E-score
1,AGTTTTGC,0.203
2,CGGACTAA,0.0595
3,CTGCACAG,-0.0773
4,CCCGATTA,-0.0457
5,CACCGATG,0.0307
6,AGGACTGC,-0.256
7,AGACTCAG,-0.133
8,AGATTTTA,0.00229
9,GGAGGACC,-0.0674
10,TATTGGGA,-0.00437
11,CCACTAAG,-0.0734
12,AGTGGCAT,0.138
13,AGTAGCCC,-0.18
14,CGCAGTTC,0.00875
15,GCGAAGCA,0.0608
16,GGTACTAC,0.0131
17,CTTCGGGC,-0.283
18,GAAAGTCC,-0.223
19,ATTGACAG,-0.0817
20,CCATGTGA,0.0626
21,CACCGGAA,-0.063
22,CTCGTTGA,0.0229
23,TCCAATCA,0.111
24,AAATTAGA,0.164
25,GTATCCAA,-0.00185

row,Sequence,PBM E-score
1,GAATTCAC,0.00462
2,CAGCCGCA,0.215
3,ATCCTCAA,-0.0466
4,ATTACGCG,0.25
5,ACGTCATG,0.0735
6,ACCAGCGA,-0.232
7,CGGGTAAC,0.00093
8,GCAATCGA,0.0926
9,ACCTTTGA,-0.201
10,AGATAAAA,0.12
11,AATTTCGT,0.167
12,AAGCGACA,-0.0218
13,CGCTTGAG,-0.0328
14,AAGGTAGT,-0.00268
15,AACGCAGC,0.0987
16,AGTAACGA,0.0053
17,AGGAACTC,0.0359
18,GACACATA,0.0206
19,ACTGTTCA,-0.162
20,TCGCTAAA,0.103
21,AGGTCCAT,-0.00683
22,CACTCACA,-0.0382
23,CCGACACA,-0.186
24,AGGCCGCA,0.162
25,ATTATATA,0.146

row,Sequence,PBM E-score
1,CACCGTCC,0.0591
2,AATCGCCG,0.431
3,GCCGGTGA,0.0592
4,CGATATCA,0.116
5,ACCATCCA,-0.213
6,CCATCAAG,-0.214
7,CCCCATGA,-0.159
8,GGACTCCA,-0.225
9,AGAAAACG,0.128
10,CATACCTC,0.0449
11,TAACCTCA,-0.136
12,CATCGGAC,-0.183
13,AAATCTGA,0.2
14,AGCTATGA,-0.183
15,GCGGTGAA,0.148
16,GGCAAACC,-0.00027
17,AGCGTTCA,-0.266
18,CGTCCGGA,-0.134
19,ACGTCTAT,-0.206
20,CCTGGGCA,-0.264
21,ATTAAGCG,0.194
22,CACGTATA,0.133
23,GCTACGAA,0.0105
24,ATGATTGG,-0.0406
25,AAACAGCC,-0.024

row,Sequence,PBM E-score
1,ACTCATCC,0.027
2,GCACGATA,0.0861
3,AAAGCGTA,0.016
4,ACTAAAGC,-0.0112
5,GATACCCA,-0.117
6,AACGCTCC,-0.122
7,GACCCACC,-0.27
8,AAAGTGAT,-0.0727
9,CAATCTGG,-0.0352
10,CACATTAA,0.0258
11,TAGATCAA,-0.00316
12,GCATGTAA,0.125
13,AGCCTGAC,-0.154
14,ACCTCTCT,-0.171
15,ATCAGGCA,-0.0243
16,CTCCGAAC,-0.0224
17,ATGTGTTG,0.131
18,CCATGAGC,-0.0849
19,GGTCAGAA,-0.0152
20,CCGGAAAC,-0.171
21,GGAATTAA,0.0807
22,CATACAAG,-0.135
23,ACCCTGCT,-0.321
24,CGTCGACA,0.089
25,GACAAGCC,0.104

row,Sequence,PBM E-score
1,ACTCTCAG,0.0178
2,ACATAGTC,-0.0859
3,GAGTCGAC,-0.193
4,AGAAAGTC,-0.168
5,ATAAATCG,0.106
6,AGGCTTGG,-0.0363
7,AACCCGCA,-0.00015
8,AGAACACT,0.0761
9,GCGTCATA,0.168
10,CTACCAAA,-0.0408
11,TCTCCAGA,-0.04
12,AAGAGTGA,-0.0731
13,GTCTTCGA,-0.0273
14,CGAGTGAG,-0.0223
15,GGTTGCTA,-0.185
16,ACCTGTGC,-0.0825
17,CTCCCAAC,-0.0984
18,CTCGTCGC,-0.0397
19,AGGTCAAA,-0.16
20,ACTCAGCA,-0.126
21,GACTGGGA,-0.28
22,GACAGGGC,0.249
23,ATAGCGAG,-0.0746
24,CGTATCTC,0.0667
25,ATAGTCTG,-0.0167

row,Sequence,PBM E-score
1,AGCCCGAT,0.0428
2,TGTCCCAA,-0.0586
3,ATCGTGGG,0.0581
4,CCGGGATC,-0.192
5,TCGTCTAA,-0.0335
6,AGAGGCCA,-0.175
7,GACTCCTC,-0.135
8,AGTGCGAG,-0.0678
9,AATAAAGA,0.09
10,AATGCATA,-0.0447
11,ACCAGAGG,0.0219
12,ACAATAGG,-0.0292
13,ATAGGCAC,0.178
14,ACTATACG,0.0276
15,AGTTAGCA,0.144
16,AGCGGTAA,0.0593
17,GCAAAGAA,0.173
18,AAAAATTT,0.0238
19,ACGAAAAT,0.163
20,ATGAACAC,0.0824
21,GTGAAGGA,-0.196
22,CAAACCGA,-0.122
23,CACAGCCC,-0.172
24,ACTGTCTA,-0.0688
25,ACTTCAAG,0.0425

row,Sequence,PBM E-score
1,ACGTATGG,0.0102
2,GAGCGAGC,0.0421
3,AACAGGGG,-0.147
4,GCTTCGCA,-0.074
5,AGGGCAAG,-0.0307
6,ATACGATG,-0.0671
7,CCTTTCCC,-0.0362
8,ATGTAAAA,0.198
9,ACCGACCA,-0.00902
10,ATCAAGGA,-0.00255
11,AAAGATCA,0.136
12,ACACCTAC,0.0117
13,ACCGTCTC,0.00679
14,CCGTTGAC,-0.0284
15,CATACCGG,-0.0661
16,ATATTCAT,0.147
17,AGCGGTTA,-0.145
18,AGGGAGCG,-0.194
19,ATGCCTTC,0.154
20,ACGATTGG,0.0977
21,CCATCTCG,-0.0786
22,CTGGTGTA,-0.191
23,AGAGAAGC,0.0567
24,GGCTGGCA,-0.274
25,GCTCTACA,0.126

row,Sequence,PBM E-score
1,AGTACTAC,0.0547
2,CAAGGTAA,0.0583
3,CTCTTATC,0.00982
4,CTTATCAA,0.188
5,ATGGATTG,0.0558
6,AAAATCAG,0.0096
7,ACAACAGG,-0.0601
8,GATTTTAA,0.17
9,ATGAGTGC,0.168
10,ATGCAAAT,-0.00759
11,CTAAAAAA,0.267
12,ATTCATAC,0.181
13,AACCATCA,-0.169
14,CCCGTGAC,-0.0372
15,AGGCGACG,0.209
16,GGGGACCC,-0.358
17,AATCTCCT,-0.266
18,CATAGCTA,-0.27
19,CGAGGCCA,-0.178
